Numbering of substitutions follows the chain as printed; changes in the protein carry UniProt numbers. The list shows a part of the results.
T1: RBFOX1 RRM RbFoxmut (Fox-RRM*) (Homo sapiens, UniProt Q9NWB1 109-208, R118D;E147R;N151S;E152T)
T1 sequence: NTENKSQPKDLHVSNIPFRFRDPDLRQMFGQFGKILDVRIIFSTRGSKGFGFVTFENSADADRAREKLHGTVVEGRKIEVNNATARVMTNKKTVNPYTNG

B1: UUAUAAA (DNA:RNA)
RNA: GGGAGACCGGAAUUCAGAUUGUCCUUAUAAAUUAAAUCCCGUCGUAGCCACCA
DNA 1: CAATCTGAATTCCGGTCTCCC
DNA 2: TGGTGGCTACGACGGGATT
B2: GCAUAGG (DNA:RNA)
RNA: B1 RNA with U25G, U26C, A30G, A31G
DNA 1: CAATCTGAATTCCGGTCTCCC
DNA 2: TGGTGGCTACGACGGGATT
B3: UGAUCAA (DNA:RNA)
RNA: B1 RNA with U26G, A29C
DNA 1: CAATCTGAATTCCGGTCTCCC
DNA 2: TGGTGGCTACGACGGGATT
B4: CAGACAC (DNA:RNA)
RNA: B1 RNA with U25C, U26A, A27G, U28A, A29C, A31C
DNA 1: CAATCTGAATTCCGGTCTCCC
DNA 2: TGGTGGCTACGACGGGATT
B5: UCUUGAA (DNA:RNA)
RNA: B1 RNA with U26C, A27U, A29G
DNA 1: CAATCTGAATTCCGGTCTCCC
DNA 2: TGGTGGCTACGACGGGATT
B6: UCUGCUG (DNA:RNA)
RNA: B1 RNA with U26C, A27U, U28G, A29C, A30U, A31G
DNA 1: CAATCTGAATTCCGGTCTCCC
DNA 2: TGGTGGCTACGACGGGATT
B7: GCAUUCU (DNA:RNA)
RNA: B1 RNA with U25G, U26C, A29U, A30C, A31U
DNA 1: CAATCTGAATTCCGGTCTCCC
DNA 2: TGGTGGCTACGACGGGATT
B8: UCAUACU (DNA:RNA)
RNA: B1 RNA with U26C, A30C, A31U
DNA 1: CAATCTGAATTCCGGTCTCCC
DNA 2: TGGTGGCTACGACGGGATT
B9: CGGGUGA (DNA:RNA)
RNA: B1 RNA with U25C, U26G, A27G, U28G, A29U, A30G
DNA 1: CAATCTGAATTCCGGTCTCCC
DNA 2: TGGTGGCTACGACGGGATT
B10: UAGUCUG (DNA:RNA)
RNA: B1 RNA with U26A, A27G, A29C, A30U, A31G
DNA 1: CAATCTGAATTCCGGTCTCCC
DNA 2: TGGTGGCTACGACGGGATT
B11: GCUGGAU (DNA:RNA)
RNA: B1 RNA with U25G, U26C, A27U, U28G, A29G, A31U
DNA 1: CAATCTGAATTCCGGTCTCCC
DNA 2: TGGTGGCTACGACGGGATT
B12: CGGGGGC (DNA:RNA)
RNA: GGGAGACCGGAAUUCAGAUUGUCCCGGGGGCUUAAAUCCCGUCGUAGCCACCA
DNA 1: CAATCTGAATTCCGGTCTCCC
DNA 2: TGGTGGCTACGACGGGATT
B13: UAUCUCU (DNA:RNA)
RNA: B1 RNA with U26A, A27U, U28C, A29U, A30C, A31U
DNA 1: CAATCTGAATTCCGGTCTCCC
DNA 2: TGGTGGCTACGACGGGATT
B14: ACUCUAU (DNA:RNA)
RNA: B1 RNA with U25A, U26C, A27U, U28C, A29U, A31U
DNA 1: CAATCTGAATTCCGGTCTCCC
DNA 2: TGGTGGCTACGACGGGATT
B15: GAGAUAU (DNA:RNA)
RNA: B12 RNA with C25G, G26A, G28A, G29U, G30A, C31U
DNA 1: CAATCTGAATTCCGGTCTCCC
DNA 2: TGGTGGCTACGACGGGATT
B16: GGGAAAC (DNA:RNA)
RNA: B12 RNA with C25G, G28A, G29A, G30A
DNA 1: CAATCTGAATTCCGGTCTCCC
DNA 2: TGGTGGCTACGACGGGATT
B17: AUAAUAU (DNA:RNA)
RNA: B1 RNA with U25A, U28A, A29U, A31U
DNA 1: CAATCTGAATTCCGGTCTCCC
DNA 2: TGGTGGCTACGACGGGATT
B18: CUUUUUG (DNA:RNA)
RNA: B1 RNA with U25C, A27U, A29U, A30U, A31G
DNA 1: CAATCTGAATTCCGGTCTCCC
DNA 2: TGGTGGCTACGACGGGATT
B19: GAGCUAG (DNA:RNA)
RNA: B12 RNA with C25G, G26A, G28C, G29U, G30A, C31G
DNA 1: CAATCTGAATTCCGGTCTCCC
DNA 2: TGGTGGCTACGACGGGATT
B20: GCAUAGC (DNA:RNA)
RNA: B1 RNA with U25G, U26C, A30G, A31C
DNA 1: CAATCTGAATTCCGGTCTCCC
DNA 2: TGGTGGCTACGACGGGATT
B21: CUCUCGG (DNA:RNA)
RNA: B12 RNA with G26U, G27C, G28U, G29C, C31G
DNA 1: CAATCTGAATTCCGGTCTCCC
DNA 2: TGGTGGCTACGACGGGATT
B22: CCUACAG (DNA:RNA)
RNA: B12 RNA with G26C, G27U, G28A, G29C, G30A, C31G
DNA 1: CAATCTGAATTCCGGTCTCCC
DNA 2: TGGTGGCTACGACGGGATT
B23: CAUAAGA (DNA:RNA)
RNA: B12 RNA with G26A, G27U, G28A, G29A, C31A
DNA 1: CAATCTGAATTCCGGTCTCCC
DNA 2: TGGTGGCTACGACGGGATT
B24: GGAAACC (DNA:RNA)
RNA: B12 RNA with C25G, G27A, G28A, G29A, G30C
DNA 1: CAATCTGAATTCCGGTCTCCC
DNA 2: TGGTGGCTACGACGGGATT
B25: UUACCUA (DNA:RNA)
RNA: B1 RNA with U28C, A29C, A30U
DNA 1: CAATCTGAATTCCGGTCTCCC
DNA 2: TGGTGGCTACGACGGGATT
B26: ACUAGUA (DNA:RNA)
RNA: B12 RNA with C25A, G26C, G27U, G28A, G30U, C31A
DNA 1: CAATCTGAATTCCGGTCTCCC
DNA 2: TGGTGGCTACGACGGGATT
B27: GCAGUAG (DNA:RNA)
RNA: B1 RNA with U25G, U26C, U28G, A29U, A31G
DNA 1: CAATCTGAATTCCGGTCTCCC
DNA 2: TGGTGGCTACGACGGGATT
B28: AAAUGCU (DNA:RNA)
RNA: B1 RNA with U25A, U26A, A29G, A30C, A31U
DNA 1: CAATCTGAATTCCGGTCTCCC
DNA 2: TGGTGGCTACGACGGGATT
B29: UCCGCUG (DNA:RNA)
RNA: B12 RNA with C25U, G26C, G27C, G29C, G30U, C31G
DNA 1: CAATCTGAATTCCGGTCTCCC
DNA 2: TGGTGGCTACGACGGGATT
B30: CAUCGGA (DNA:RNA)
RNA: B12 RNA with G26A, G27U, G28C, C31A
DNA 1: CAATCTGAATTCCGGTCTCCC
DNA 2: TGGTGGCTACGACGGGATT
B31: CAUUUCU (DNA:RNA)
RNA: B12 RNA with G26A, G27U, G28U, G29U, G30C, C31U
DNA 1: CAATCTGAATTCCGGTCTCCC
DNA 2: TGGTGGCTACGACGGGATT

Each binder was assayed against T1, RBFOX1 RRM RbFoxmut (Fox-RRM*) (assay: EMSA; HiTS-Eq, 1 nM pool, 10 min; buffer printed only for the single-RNA assays: 10 mM Tris pH 7.5, 150 mM NaCl, 3.4 mM EDTA, 0.001% NP-40, 30 C). Details: tags: His6 N-terminal (pET28a); label: 5' 32P.
Method in brief: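 Purified RbFox RRM (wild type or mutant) was equilibrated for 10 min in 50 µL with 1 nM of a 5′-radiolabelled pool of RNA with 7 randomized nucleotides, its flanks annealed to DNA oligonucleotides, across increasing protein concentrations. Free RNA was separated by 8% native PAGE, excised, reverse-transcribed, PCR-barcoded and sequenced on an Illumina HiSeq 2500. Relative association constants came from read-count changes of each variant against the control reaction, normalised to the cognate motif.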

Binder	binding signal
B1	0.0689 KA relative to UGCAUGU
B2	0.118 KA relative to UGCAUGU
B3	0.0566 KA relative to UGCAUGU
B4	0.0598 KA relative to UGCAUGU
B5	0.0842 KA relative to UGCAUGU
B6	0.109 KA relative to UGCAUGU
B7	0.0748 KA relative to UGCAUGU
B8	0.103 KA relative to UGCAUGU
B9	0.117 KA relative to UGCAUGU
B10	0.0956 KA relative to UGCAUGU
B11	0.076 KA relative to UGCAUGU
B12	0.0858 KA relative to UGCAUGU
B13	0.0657 KA relative to UGCAUGU
B14	0.0964 KA relative to UGCAUGU
B15	0.11 KA relative to UGCAUGU
B16	0.0714 KA relative to UGCAUGU

Binder	binding signal
B17	0.104 KA relative to UGCAUGU
B18	0.0742 KA relative to UGCAUGU
B19	0.0775 KA relative to UGCAUGU
B20	0.126 KA relative to UGCAUGU
B21	0.0806 KA relative to UGCAUGU
B22	0.109 KA relative to UGCAUGU
B23	0.104 KA relative to UGCAUGU
B24	0.0574 KA relative to UGCAUGU
B25	0.101 KA relative to UGCAUGU
B26	0.139 KA relative to UGCAUGU
B27	0.122 KA relative to UGCAUGU
B28	0.0946 KA relative to UGCAUGU
B29	0.0984 KA relative to UGCAUGU
B30	0.0705 KA relative to UGCAUGU
B31	0.0984 KA relative to UGCAUGU

Reference: publication PMC9911399, “Two distinct binding modes provide the RNA-binding protein RbFox with extraordinary sequence specificity”
